Among all 190,000 compounds or so, about 520 (0.27%) were called active. This list was built around the results that the source calls inconclusive (neither active nor inactive); the mix of calls is not that of the screen.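 The calls were made as follows: active = GTP binding activity at least 20 points away from the 100% control level, either lower or higher; inconclusive = compound flagged as likely green fluorescent, judged across all proteins; inactive = the rest.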
Target: Ras-related C3 botulinum toxin substrate 1 (Homo sapiens) (UniProt P63000)
Experiment: wildtype Rac1 GTP binding modulators, primary screen, biochemical, GST-Rac1 beads, flow cytometry, multiplex (AID 757)
Settings: fluorescent GTP binding, at 10 µM, actives lie on both sides, 0 = cold GTP competed, 100 = untreated

Row | SMILES | GTP binding activity (% of control)
1 | Cc1cn2c(nc(=O)c3cccnc32)s1 | active: 76%
2 | CCc1ccc(C2C(C#N)=C(N)N(N3CCOCC3)C3=C2C(=O)CC(C)(C)C3)s1 (stereo unspecified) | inconclusive: 98%
3 | CCOC(=O)N1CCC(N2Cc3cccc(C(=O)Nc4ccc(OC)c(OC)c4)c3C2=O)CC1 | inconclusive: 87%
4 | CSc1nc2nccc(-c3ccc(-c4ccccc4)cc3)n2n1 | inconclusive: 80%
5 | COc1ccc(CCNC(=O)CSc2nc(-c3ccc(OC)c(OC)c3)ccc2C#N)cc1 | inconclusive: 100%
6 | CCCNc1c(F)c(F)c2c(C)c3ccccc3nc2c1F | inconclusive: 102%
7 | O=C(NCc1ccco1)c1cc2ccccc2o1 | inconclusive: 93%
8 | COc1ccc(-c2coc3cc4oc(=O)cc(C)c4cc23)cc1F | inconclusive: 98%
9 | Cc1ccc(C)c(NC(=S)NC(NC(=O)N(C)C)C(Cl)(Cl)Cl)c1 (stereo unspecified) | inconclusive: 100%
10 | COCCNC(=O)c1cc2oc3ccccc3c2n1C | inactive: 101%
11 | CCOc1ccc(C(=O)c2cc([N+](=O)[O-])ccc2Cl)cc1 | inactive: 103%
12 | Cc1ccccc1Cn1cc(NC(=O)c2noc3c2CC(C(C)(C)C)CC3)cn1 (stereo unspecified) | inconclusive: 119%
13 | Cc1ccc(NC(=O)CCOc2ccccc2)cc1S(=O)(=O)Nc1ccccc1Cl | inconclusive: 92%
14 | CCCn1c(=O)c(C(=O)Nc2ncccc2C)c(O)c2ccccc21 | inconclusive: 88%
15 | Cc1ccc(Nc2ccc(C(F)(F)F)cc2[N+](=O)[O-])cc1 | inconclusive: 92%
16 | Cc1cc(C(=O)Oc2ccccc2C(=O)O)c(C)o1 | active: 127% [activator]
17 | O=C(NC1CCN(Cc2ccccc2)CC1)c1ccc(N2CC3CC(C2)c2cccc(=O)n2C3)c([N+](=O)[O-])c1 (stereo unspecified) | inactive: 98%
18 | CN(C)S(=O)(=O)c1ccc(NC(=O)N2CCOCC2)cc1 | inactive: 100%
19 | C/C(=C\c1ccccc1)C(=O)Nc1ccc(S(=O)(=O)Nc2ncccn2)cc1 | inactive: 98%
20 | Cc1ccc(SCC(=O)NC(=O)Nc2ccc3c(c2)OCCO3)cc1C | inconclusive: 92%
21 | CCCCC(=O)Nc1cc(N(C)C)nc2ccccc12 | inconclusive: 92%
22 | O=C(c1ccco1)N1N=C2CCCCCC2C1(O)C(F)(F)F (stereo unspecified) | inactive: 99%
23 | COc1cccc(C(=O)Nc2cccc(C(=O)NCC(C)C)c2)c1 | inactive: 102%

Row | SMILES | GTP binding activity (% of control)
24 | Cc1ccc(C2=NN(S(C)(=O)=O)C(c3ccc4c(c3)OCO4)C2)cc1 (stereo unspecified) | inconclusive: 113%
25 | Cc1nc(-c2ccccc2)sc1C(=O)NN | active: 128% [activator]
26 | COc1ccc(NC(=O)c2cc(-c3ccc(C)o3)nc3ccccc23)cc1OC | inconclusive: 99%
27 | Fc1ccc(Nc2nc3ccccc3s2)cc1 | inconclusive: 96%
28 | COC(=O)C1=C(C)Nc2c(c(=O)n(C)c(=O)n2C)C1c1ccc(C)cc1 (stereo unspecified) | inconclusive: 89%
29 | Cc1nn(CCCC(=O)N2CCN(c3ccc(F)cc3)CC2)c(C)c1[N+](=O)[O-] | inconclusive: 101%
30 | COc1ccc(S(=O)(=O)N(C)C)cc1NC(=O)CSc1nnc(-c2cccnc2)o1 | inactive: 100%
31 | O=C(NC1CCCCC1)C(Cc1ccccc1)N1C(=O)C2C3CCC(C3)C2C1=O (stereo unspecified) | inconclusive: 113%
32 | Cc1cccc(NC(=O)N2CCCC2C(=O)Nc2ccccc2)c1 (stereo unspecified) | inconclusive: 93%
33 | CCc1ccc(N(C)S(=O)(=O)c2ccc3[nH]cc(C(=O)NCCN4CCOCC4)c(=O)c3c2)cc1 | inconclusive: 106%
34 | COC(=O)c1oc2ccccc2c1NC(=O)c1ccccc1O | inconclusive: 94%
35 | CCOC(=O)c1cnc2c(C#N)cnn2c1N | active: 73%
36 | Nc1c(C(=O)NCc2ccco2)c2nc3ccccc3nc2n1CCc1ccc(F)cc1 | inconclusive: 103%
37 | O=c1n(Cc2ccc(Cl)cc2)c2sc3c(c2c2ncnn12)CCCC3 | inconclusive: 85%
38 | COc1ccc2c(CCNC(=O)c3ccc([N+](=O)[O-])cc3)c[nH]c2c1 | inactive: 103%
39 | CCOc1ccc2cc(/C=C/C(=O)c3ccco3)c(Cl)nc2c1 | inconclusive: 117%
40 | COc1cccc(CN2CCNC(=O)C2CC(=O)NCCOc2cccnc2)c1 (stereo unspecified) | inactive: 94%
41 | O=c1c2ccccc2oc2nc3n(c(=O)c12)CCCS3 | inconclusive: 88%
42 | O=C(COc1ccc(Cl)cc1[N+](=O)[O-])N1CCCCCC1 | inactive: 96%
43 | COc1cccc(-n2c([S-])c(C(=O)Nc3ccc(C(F)(F)F)cc3)[n+]3ccccc23)c1 | inactive: 96%
44 | COc1ccc(-c2nc(C)ncc2-c2csc(C)n2)c(O)c1 | inconclusive: 103%
45 | O=C1CCCN1CCC1CCCCN1Cc1nc(-c2cnccn2)no1 (stereo unspecified) | inactive: 99%
46 | COC(=O)c1ccc2nc(Nc3nc4ccc(F)cc4s3)sc2c1 | inconclusive: 87%

— PubChem BioAssay AID757 (NMMLSC, 2007)
